# Source: the supplement of paper PMC8728848
# Some of the results follow.
# B1: Cp ZmpB (Clostridium perfringens), Q0TR08 (protein)
# chain: MNKRKIAAIILATMITNLSATTIDVLAQELNTKNNSKVEVSHDDESHQARVSKFDLYNSDKLDAYNQEFQVSRSNIKSINNNGGKYNSSTIDKAIDGNLETHWETGKPNDANFTNEVVVTFNEITNIDRIVYSARRDSARGKGFAKEFEIYASLKDEGDDFNLVSSGEYTESTRDLVEIKFNPTDFKRLKFKFKKADQNWASAAEFMFYKEDKLNEKFNGLFTDSSMNKVSEEFNTLEKLNAFENELKDHPIYDLYKEGLNNARAILTETSENPTKATLGQITYNLNDDYNNQYRMPYKNIKAIKNNGRHYAAQNIEKAIDNDVNTYWETGTLNSSSFNNEVEVEFNDLVTLDRIVYGSRQSDLKGFAEEVYIYASRTSKGDTYKLVATGAHEATKGLVEAKFEPTEFKRVKFKFKKSKQNSATLNELMFYKPDEVYSSIPKLFTDGTMSELSEEFNSLEKINAFKEKAKNHPLYNDFNETIELAESLISNPRKEDVLELEMRGDSISEAKKRKVWNFQDWQITGLSARAGDKITVYVDVAEGDPTPTLLYKQSLTQHGGATSFQLKPGKNEITIPEINYESNGIPKDVIQGGDLFFTNYKSDSQKRAPKVRIEGASKYPVFILGKSDENEVMKELEAYVEKIKAEPKTTPNIFAVSSNKSLEFVQATYALDWYKKNNKTPKYTAEQWDQYIADAMGFWGFDNSKDVNSDFNFRIMPMVKNLSGGAFMNAGNGVIGIRPGNQDAILAANKGWGVAHELGHNFDTGGRTIVEVTNNMMPLFFESKYKTKTRITDQNIWENNTYPKVGLDDYSNNELYNKADSTHLAQLAPLWQLYLYDNTFYGKFERQFRERDFGNKNREDIYKSWVVAASDAMELDLTEFFARHGIRVDDKVKEDLAKYPKPDKKIYYLNDLAMNYKGDGFTENAKVSVSTSGSNGNIKLSFSVDDENKDNILGYEIRRDGKYVGFTSNDSFVDTKSNLDEDGVYVVTPYDRKLNTLNPIEVNALQPTLSVNPVITLALGEEFNEEEYIVAKDIKGNSLSESVKVKSSNVNTSKVGEYEVLYSLEDSKGNEYTKTSKVNVVSRKEYMSDLTPKQSSNGWGTVRKDKSISGGVIGLTRDGDFVDYNKGLGLHSNAEYVYDLEGKDYDYFESYVGVDKAMSSRPASSVIFKVLVDGEEKFNSGVMRSTTPQKYVKVDVKNAKELKLIVNDAGDGDSSDHASFGDAKLATLSSKPIIKGENLAYSMDEKVDLMKGITATDIEDGNITSKVQIKSSDFVEGKSGIFTVVYSVTDSDGLTSECSRTIAVTDKETQLSDLNWKSATIGSGSVRKDRAVSGNQIRLLNEDNSVETFAKGIGTHSYSEIVYNSEGYDIFDTWVGIDRHVADKKVSSVKFKVYVDGELKAETDVMRIDTPKKRLVVDVRNSKEIKLVVDVADNGNNWDHADWADAKFRNLAEYDASELNKAIEEAKKLDLNNYTEESSEALKNAISKGEEALLSKDKETINSALEELNKEMNSLVKVDLNAVINIPDKYLLKSIQNQLNKTGDITLGDMYSLTTLTLSGVEDLTGLENAKNLETLNMDYNEVKDLRPLSKLKKLNTLNAQEQFIAAGELKPSNGKVIGDSKVYNREGKNVAKTIRVVDKNGNTILEQDAKDEFTINTKDLSSGLYGVHVLFEDEGFSGVMFYLFNV
# Assays:
# Experiment in all cases: glycan array binding signal (z-score within array); higher = stronger binding
# Conditions in all cases: glycan notation: IUPAC condensed, linker removed
# [1] = molecular target: Neu5Ac(a2-6)Gal(b1-4)GlcNAc(b1-2)Man(a1-6)[Man(a1-3)]Man(b1-4)GlcNAc(b1-4)GlcNAc
# How it was run: (§1)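 The Consortium for Functional Glycomics database supplied 3228 glycan arrays, of which those lacking an available protein sequence were dropped. The binding signal, a within-array Z-score, was averaged across arrays of the same protein sequence and across linkers. Negative scores can be read as non-binding.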
# [2] = molecular target: Neu5Ac(a2-6)Gal(b1-4)GlcNAc(b1-2)[Neu5Ac(a2-6)Gal(b1-4)GlcNAc(b1-4)]Man(a1-3)[GlcNAc(b1-4)][Neu5Ac(a2-6)Gal(b1-4)GlcNAc(b1-2)[Neu5Ac(a2-6)Gal(b1-4)GlcNAc(b1-6)]Man(a1-6)]Man(b1-4)GlcNAc(b1-4)GlcNAc
# How it was run: as §1
# [3] = molecular target: Neu5Ac(a2-6)Gal(b1-4)GlcNAc(b1-2)[Neu5Ac(a2-6)Gal(b1-4)GlcNAc(b1-4)]Man(a1-3)[GlcNAc(b1-4)][Neu5Ac(a2-6)Gal(b1-4)GlcNAc(b1-4)Man(a1-6)]Man(b1-4)GlcNAc(b1-4)GlcNAc
# How it was run: as §1
# [4] = molecular target: Neu5Ac(a2-6)Gal(b1-4)GlcNAc(b1-2)[Neu5Ac(a2-6)Gal(b1-4)GlcNAc(b1-6)]Man(a1-6)[Neu5Ac(a2-6)Gal(b1-4)GlcNAc(b1-2)Man(a1-3)][GlcNAc(b1-4)]Man(b1-4)GlcNAc(b1-4)GlcNAc
# How it was run: as §1
# [5] = molecular target: Neu5Ac(a2-6)Gal(b1-4)GlcNAc(b1-3)Gal(b1-3)GlcNAc
# How it was run: as §1
# [6] = molecular target: Neu5Ac(a2-6)Gal(b1-4)GlcNAc(b1-3)Gal(b1-4)GlcNAc
# How it was run: as §1
# [7] = molecular target: Neu5Ac(a2-6)Gal(b1-4)GlcNAc(b1-3)Gal(b1-4)GlcNAc(b1-2)Man(a1-3)[Neu5Ac(a2-6)Gal(b1-4)GlcNAc(b1-3)Gal(b1-4)GlcNAc(b1-2)Man(a1-6)]GalNAc
# How it was run: as §1
# [8] = molecular target: Neu5Ac(a2-6)Gal(b1-4)GlcNAc(b1-3)Gal(b1-4)GlcNAc(b1-3)Gal(b1-4)GlcNAc
# How it was run: as §1
# [9] = molecular target: Neu5Ac(a2-6)Gal(b1-4)GlcNAc(b1-3)Gal(b1-4)GlcNAc(b1-3)Gal(b1-4)GlcNAc(b1-2)Man(a1-3)[Neu5Ac(a2-6)Gal(b1-4)GlcNAc(b1-3)Gal(b1-4)GlcNAc(b1-3)Gal(b1-4)GlcNAc(b1-2)Man(a1-6)]GalNAc
# How it was run: as §1
# [10] = molecular target: Neu5Ac(a2-6)Gal(b1-4)GlcNAc(b1-3)Gal(b1-4)GlcNAc(b1-3)GalNAc
# How it was run: as §1
# [11] = molecular target: Neu5Ac(a2-6)Gal(b1-4)GlcNAc(b1-3)Gal(b1-4)GlcNAc(b1-3)[Neu5Ac(a2-6)Gal(b1-4)GlcNAc(b1-3)Gal(b1-4)GlcNAc(b1-6)]GalNAc
# How it was run: as §1
# [12] = molecular target: Neu5Ac(a2-6)Gal(b1-4)GlcNAc(b1-3)Gal(b1-4)GlcNAc(b1-6)[Gal(b1-3)]GalNAc
# How it was run: as §1
# [13] = molecular target: Neu5Ac(a2-6)Gal(b1-4)GlcNAc(b1-3)Gal(b1-4)[Fuc(a1-3)]GlcNAc(b1-3)Gal(b1-4)[Fuc(a1-3)]GlcNAc
# How it was run: as §1
# [14] = molecular target: Neu5Ac(a2-6)Gal(b1-4)GlcNAc(b1-3)GalNAc
# How it was run: as §1
# [15] = molecular target: Neu5Ac(a2-6)Gal(b1-4)GlcNAc(b1-3)[Neu5Ac(a2-6)Gal(b1-4)GlcNAc(b1-6)]GalNAc
# How it was run: as §1
# [16] = molecular target: Neu5Ac(a2-6)Gal(b1-4)GlcNAc(b1-6)GalNAc
# How it was run: as §1
# [17] = molecular target: Neu5Ac(a2-6)Gal(b1-4)GlcNAc(b1-6)[Gal(b1-3)GlcNAc(b1-3)]Gal(b1-4)Glc
# How it was run: as §1
# [18] = molecular target: Neu5Ac(a2-6)Gal(b1-4)GlcNAc(b1-6)[Gal(b1-3)]GalNAc
# How it was run: as §1
# [19] = molecular target: Neu5Ac(a2-6)Gal(b1-4)GlcNAc6S
# How it was run: as §1
# [20] = molecular target: Neu5Ac(a2-6)GalNAc
# How it was run: as §1
# [21] = molecular target: Neu5Ac(a2-6)GalNAc(b1-4)GlcNAc
# How it was run: as §1
# [22] = molecular target: Neu5Ac(a2-6)GalNAc(b1-4)GlcNAc6S
# How it was run: as §1
# [23] = molecular target: Neu5Ac(a2-6)GlcNAc(b1-4)GlcNAc
# How it was run: as §1
binder,measurement,setting,value
B1,glycan array binding signal (z-score),[1],-0.386
same,glycan array binding signal (z-score),[2],0.198
same,glycan array binding signal (z-score),[3],0.1
same,glycan array binding signal (z-score),[4],-0.171
same,glycan array binding signal (z-score),[5],-0.479
same,glycan array binding signal (z-score),[6],1.03
same,glycan array binding signal (z-score),[7],-0.241
same,glycan array binding signal (z-score),[8],0.06
same,glycan array binding signal (z-score),[9],-0.333
same,glycan array binding signal (z-score),[10],-0.303
same,glycan array binding signal (z-score),[11],0.602
same,glycan array binding signal (z-score),[12],-0.162
same,glycan array binding signal (z-score),[13],0.019
same,glycan array binding signal (z-score),[14],-0.399
same,glycan array binding signal (z-score),[15],0.229
same,glycan array binding signal (z-score),[16],0.452
same,glycan array binding signal (z-score),[17],-0.011
same,glycan array binding signal (z-score),[18],-0.377
same,glycan array binding signal (z-score),[19],0.289
same,glycan array binding signal (z-score),[20],-0.196
same,glycan array binding signal (z-score),[21],-0.135
same,glycan array binding signal (z-score),[22],0.627
same,glycan array binding signal (z-score),[23],-0.201
